# Reference: the supplement of paper PMC8728848
# The list shows a part of the results.
# B1: Epa1-NP-mutant-Y228A (Candida glabrata), Q6VBJ0 (protein)
# chain: MILNPALFLNKCVCIYTTLILLLLTNGGYATSSNDISLASKDPTTFPLGCSPDITTPKKGLSMELYSYDFRKKGSYPCWDAAYLDPNYPRTGYKSHRLLAKVDGVTGNINFYYHATKGCTPQLGHLPASYNYPKPLTMTNFTMLLYGYFRPKVTGFHTFTISADDLLFVNFGAGNAFDCCRRDSSADHFGNYQAYAIWGSKTAKDELTVHLDAGVYYPIRLFYNNREADGALSFTFKTESNENTVSDFSEYFFSLDDTEEGCPGLISYDSSCASVKTSKIIGIDYHTETPNENLVPITKTIYHLGIPCTGTTTTPLCGSGFYDPLANKCVTINTSSTSSVTKTTSHTTSKEVSFHSSISSQKTLIPKSIPSPYGPIKSQSIPTEMETSSEISSSEYAFSDVISTPSHSPYTKKHSSLNSSSYTSTVIHSLTSYSISQGIFSTSLSEQNITSKSSTDKFSTATSMSNNITQSSIIISQFSTNNENYTTTSMHTSSDKISTETLNNSISTTTSILFSNSSTILKNNTTIISSDKDTHYHPVNPTIVCSTNKTEIICASITQPSISNSNNHWSSSVLKFNSTTVRSTLPSSAGSNETSINVPFSSSTESNTSTSSTSTSNSKMVRSTLPSSAGSNETSISVPFSSSTESNTSTSSTSTSNSKMVRSTLPSSAGSNETSINVPFSSSTESNTSTSSTSTSNSKTVRSTPFSSAGIIMTSLSQRNNKSASSYASSNSKCYNTADSCRKVHSTPSYLLTSSYTSEGVDYDCSLVSTKLKINDTNCVNNKHTTKSCLKTSVTTTIPTLEIKTARKSSSNTIGLHSYPTSSPNKSISSAPIIGYISSFKTIKTASPSYQTSDLTTITTITSLNNPGSTAVENTHESNDKSRKTSSNDISSKHSVIKETKDAVESSNKSHQTNTLKCSSIIIASSSHNSYESLGGTTLTLTLSKVYSPQNNDTLPFLEISEVNPSRTVLPESSKMMQYLTSTEERNKTARNTIATNIVSISTFHFEGEGNAIRMGYTQLLLMLIGIIVMNIGT
# What was measured:
# Test in all cases: glycan array binding signal (z-score within array); higher = stronger binding
# Conditions in all cases: glycan notation: IUPAC condensed, linker removed; mutation: Y228A
# [1] = target: Fuc(a1-2)[GalNAc(b1-3)]Gal
# How it was run: (§1)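 The Consortium for Functional Glycomics database supplied 3228 glycan arrays, of which those lacking an available protein sequence were dropped. The binding signal, a within-array Z-score, was averaged across arrays of the same protein sequence and across linkers. Negative scores can be read as non-binding.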
# Fuc(a1-3)GlcNAc = target: Fuc(a1-3)GlcNAc
# How it was run: as §1
# [2] = target: Fuc(a1-3)[Gal(b1-4)]Glc6S
# How it was run: as §1
# [3] = target: Fuc(a1-3)[Gal(b1-4)]GlcNAc
# How it was run: as §1
# [4] = target: Fuc(a1-3)[Gal(b1-4)]GlcNAc(b1-2)Man
# How it was run: as §1
# [5] = target: Fuc(a1-3)[Gal(b1-4)]GlcNAc(b1-2)Man(a1-3)[Fuc(a1-3)[Gal(b1-4)]GlcNAc(b1-2)Man(a1-6)]Man(b1-4)GlcNAc(b1-4)GlcNAc
# How it was run: as §1
# [6] = target: Fuc(a1-3)[Gal(b1-4)]GlcNAc(b1-2)Man(a1-3)[Fuc(a1-3)[Gal(b1-4)]GlcNAc(b1-2)Man(a1-6)]Man(b1-4)GlcNAc(b1-4)[Fuc(a1-6)]GlcNAc
# How it was run: as §1
# [7] = target: Fuc(a1-3)[Gal(b1-4)]GlcNAc(b1-3)Gal(b1-3)[Fuc(a1-4)]GlcNAc
# How it was run: as §1
# [8] = target: Fuc(a1-3)[Gal(b1-4)]GlcNAc(b1-3)Gal(b1-4)[Fuc(a1-3)]GlcNAc
# How it was run: as §1
# [9] = target: Fuc(a1-3)[Gal(b1-4)]GlcNAc(b1-3)Gal(b1-4)[Fuc(a1-3)]GlcNAc(b1-3)Gal(b1-4)[Fuc(a1-3)]GlcNAc
# How it was run: as §1
# [10] = target: Fuc(a1-3)[Gal(b1-4)]GlcNAc(b1-3)GalNAc
# How it was run: as §1
# [11] = target: Fuc(a1-3)[Gal(b1-4)]GlcNAc(b1-6)GalNAc
# How it was run: as §1
# [12] = target: Fuc(a1-3)[Gal(b1-4)]GlcNAc(b1-6)[Gal(b1-3)GlcNAc(b1-3)]Gal(b1-4)Glc
# How it was run: as §1
# [13] = target: Fuc(a1-3)[Gal(b1-4)]GlcNAc6S
# How it was run: as §1
# [14] = target: Fuc(a1-3)[Gal3S(b1-4)]Glc
# How it was run: as §1
# [15] = target: Fuc(a1-3)[Gal3S(b1-4)]GlcNAc
# How it was run: as §1
# [16] = target: Fuc(a1-3)[Gal3S(b1-4)]GlcNAc6S
# How it was run: as §1
# [17] = target: Fuc(a1-3)[GalNAc(b1-4)]GlcNAc
# How it was run: as §1
# [18] = target: Fuc(a1-3)[GalNAc(b1-4)]GlcNAc6S
# How it was run: as §1
# Fuc(a1-4)GlcNAc = target: Fuc(a1-4)GlcNAc
# How it was run: as §1
# Fuc(b1-3)GlcNAc = target: Fuc(b1-3)GlcNAc
# How it was run: as §1
# Gal(a1-2)Gal = target: Gal(a1-2)Gal
# How it was run: as §1
# Gal(a1-3)Gal = target: Gal(a1-3)Gal
# How it was run: as §1
# Gal(a1-3)Gal(b1-3)GlcNAc = target: Gal(a1-3)Gal(b1-3)GlcNAc
# How it was run: as §1
# [19] = target: Gal(a1-3)Gal(b1-3)GlcNAc(b1-2)Man
# How it was run: as §1
# [20] = target: Gal(a1-3)Gal(b1-3)GlcNAc(b1-2)Man(a1-3)[Gal(a1-3)Gal(b1-3)GlcNAc(b1-2)Man(a1-6)]Man(b1-4)GlcNAc(b1-4)GlcNAc
# How it was run: as §1
# [21] = target: Gal(a1-3)Gal(b1-3)GlcNAc(b1-3)GalNAc
# How it was run: as §1
# [22] = target: Gal(a1-3)Gal(b1-3)GlcNAc(b1-6)GalNAc
# How it was run: as §1
# [23] = target: Gal(a1-3)Gal(b1-3)[Fuc(a1-4)]GlcNAc(b1-2)Man(a1-3)[Gal(a1-3)Gal(b1-3)[Fuc(a1-4)]GlcNAc(b1-2)Man(a1-6)]Man(b1-4)GlcNAc(b1-4)GlcNAc
# How it was run: as §1
# Gal(a1-3)Gal(b1-4)Glc = target: Gal(a1-3)Gal(b1-4)Glc
# How it was run: as §1
binder,measurement,setting,value
B1,glycan array binding signal (z-score),[1],-0.285
same,glycan array binding signal (z-score),Fuc(a1-3)GlcNAc,-0.263
same,glycan array binding signal (z-score),[2],0.101
same,glycan array binding signal (z-score),[3],-0.24
same,glycan array binding signal (z-score),[4],-0.215
same,glycan array binding signal (z-score),[5],-0.024
same,glycan array binding signal (z-score),[6],-0.302
same,glycan array binding signal (z-score),[7],-0.303
same,glycan array binding signal (z-score),[8],-0.214
same,glycan array binding signal (z-score),[9],-0.195
same,glycan array binding signal (z-score),[10],-0.25
same,glycan array binding signal (z-score),[11],-0.289
same,glycan array binding signal (z-score),[12],-0.025
same,glycan array binding signal (z-score),[13],-0.072
same,glycan array binding signal (z-score),[14],-0.172
same,glycan array binding signal (z-score),[15],-0.321
same,glycan array binding signal (z-score),[16],-0.115
same,glycan array binding signal (z-score),[17],-0.06
same,glycan array binding signal (z-score),[18],-0.376
same,glycan array binding signal (z-score),Fuc(a1-4)GlcNAc,-0.223
same,glycan array binding signal (z-score),Fuc(b1-3)GlcNAc,-0.104
same,glycan array binding signal (z-score),Gal(a1-2)Gal,-0.233
same,glycan array binding signal (z-score),Gal(a1-3)Gal,-0.155
same,glycan array binding signal (z-score),Gal(a1-3)Gal(b1-3)GlcNAc,-0.225
same,glycan array binding signal (z-score),[19],-0.108
same,glycan array binding signal (z-score),[20],-0.13
same,glycan array binding signal (z-score),[21],-0.083
same,glycan array binding signal (z-score),[22],0.018
same,glycan array binding signal (z-score),[23],-0.124
same,glycan array binding signal (z-score),Gal(a1-3)Gal(b1-4)Glc,-0.176
